110 sequences from PMC10668032 can be followed below.

This is one part of the list. At the low end of the ranking, values are background and their order means little.

In the experiment the target is SIX1 homeodomain (reference allele) (UniProt Q15475). Description: universal protein binding microarray. Particulars: Universal all-10-mer PBM (8x60K, AMADID 030236), 300 nM GST-tagged protein, Alexa Fluor 488 anti-GST; buffer, salt, pH and temperature not stated; high values mean tight binding; most listed sequences are background and not binding sites; double strand, one strand shown.
For the sequence GTATAGTA, the binding signal was found to be 0.285 E-score. The figure for GCTAGCGA is -0.00957 E-score. The figure for GTAGAGAC is -0.241 E-score; for CACGATTC it is -0.0498 E-score. For TTTACAAA the value was -0.175 E-score; for ACCCGGTA, 0.244 E-score. As to ACAGTCTC, the binding signal was -0.141 E-score. For AGTGGATC the value was 0.359 E-score; for GGGATATA, 0.433 E-score; for TCGCAACA, -0.168 E-score. The figure for AGTTCTTC is -0.111 E-score; for ATTTATTG it is -0.177 E-score; for CTGCGGAA it is -0.161 E-score. For CACAGGGA the value was 0.00358 E-score; for ATCTCGTA, 0.232 E-score; for ACATGCGC, -0.21 E-score. Regarding GTTATTCA, the binding signal is -0.0757 E-score. The figure for CAAAACAA is -0.362 E-score; for ATTAAGAG it is 0.0972 E-score; for AAGCAAAG it is -0.0886 E-score. With GGGTCCCA, the binding signal was -0.197 E-score. Take AGACGTTG: the binding signal was -0.138 E-score. For TGCAGGCA the value was -0.108 E-score; for TAACGTGA, -0.000625 E-score; for CAAAACAG, -0.0236 E-score. For GATTCCCA the value was -0.0427 E-score; for AACGTCCG, -0.17 E-score. For GATGTTGC the value was -0.0769 E-score; for GGGAGTTA, -0.0269 E-score. On to AGGCGCTG, for which the binding signal is -0.2 E-score. GATAGCTA: the binding signal amounted to 0.207 E-score. AGGTAGTG: the binding signal was determined as 0.1 E-score. The figure for AGACAATG is -0.172 E-score; for AGGCCCGC it is -0.283 E-score; for CCAAGTCC it is -0.193 E-score.

Turning to ACTGACAG, the binding signal was -0.159 E-score. For TAACAAAA the value was -0.273 E-score; for GATGATAC, 0.484 E-score. The figure for AAGATGCT is -0.123 E-score; for ACCGAACT it is -0.0891 E-score; for CCGCCTCC it is -0.147 E-score. For AGTTTTTG the value was -0.0896 E-score; for CATGCCGG, 0.0882 E-score; for CATAAACC, 0.19 E-score.

With CGATATGA, the binding signal is 0.311 E-score. Consider ACCAGTGC, for which the binding signal was determined as 0.0391 E-score. For AAGGAAGG the value was -0.144 E-score; for ATTCTTGA, 0.0269 E-score.

CATCTATA: the binding signal was 0.251 E-score. For GATGCAAC the value was -0.0128 E-score; for CCAGACAG, -0.181 E-score. Take GAGAGCCC: the binding signal was -0.0896 E-score. For CACATAGC the value was -0.127 E-score. For AACAAGTC the value was -0.153 E-score. For AGATCGTG the value was 0.204 E-score; for ATCCGAGA, 0.328 E-score; for GCCAGCCC, -0.199 E-score.

As to ACCGAAGG, the binding signal is -0.0232 E-score. For ACGCCACA the value was 0.0585 E-score; for ACCTATCC, 0.262 E-score; for ATTCTATA, 0.0884 E-score.

Consider CACGTTAC, for which the binding signal is -0.0593 E-score. For CAACATAG the value was 0.128 E-score; for CTCTCGCC, -0.293 E-score; for CTGTACAC, 0.0429 E-score. For TGTTCTAA the value was -0.139 E-score; for GATGTACC, 0.0177 E-score; for GACGTTAC, -0.335 E-score. The figure for CCAGAGAG is -0.0597 E-score; for AACATCCT it is -0.102 E-score. As to TAGCGACA, the binding signal is -0.0229 E-score. The figure for CCGCGAAC is 0.0706 E-score; for ATTTAACG it is -0.296 E-score; for CGTCTTAG it is -0.143 E-score. For CACTCTGA the value was -0.107 E-score; for TAGTTACA, -0.0453 E-score.

Take CACTAACA: the binding signal is -0.0258 E-score. For CCCGGCAC the value was -0.291 E-score; for CCACCGGC, -0.0662 E-score; for CACGAGAA, 0.0576 E-score. For TAAGACTA the value was 0.0664 E-score; for ATGTAATC, 0.196 E-score; for GGGACCAA, -0.356 E-score. With AGCGCACT, the binding signal is -0.221 E-score. For the sequence GACCGATC, the binding signal amounted to 0.246 E-score. On to CTTTTCTA, for which the binding signal was -0.174 E-score. The figure for GCACTCAA is -0.0574 E-score. The figure for AGGGGACT is -0.137 E-score; for CATTCTTA it is 0.122 E-score; for AGGTGTAC it is 0.182 E-score.

As to AGGTCTGA, the binding signal is -0.0938 E-score. For ACCAGTTC the value was -0.0617 E-score; for CGTGCACA, -0.225 E-score; for GCCAAGCC, -0.144 E-score.

Turning to AACATCGG, the binding signal is -0.0255 E-score. The figure for ATCTCCTA is 0.159 E-score. The figure for CATTCGAC is -0.0437 E-score; for ACGGATTA it is 0.301 E-score. For ACCTCAGT the value was -0.00928 E-score. In the case of ACGACGGC, the binding signal is -0.151 E-score. The figure for GGCACCAC is -0.178 E-score; for GTCTGAAA it is -0.152 E-score; for CCGGGTGA it is 0.201 E-score. The figure for AAAACTCT is -0.346 E-score. For TCTTTTAA the value was -0.129 E-score.

As to CACCACAG, the binding signal was 0.113 E-score. For ACATGTTC the value was -0.194 E-score; for GACCGTAC, -0.205 E-score.

Turning to AGACGGCC, the binding signal is -0.041 E-score. As for CTAGTGAC, the binding signal was -0.15 E-score.
